The supplement of paper PMC3334620
In all, about 33,000 sequences were measured (“E-score (-0.5 to 0.5)”: median about -0.032, highest 2% from about 0.36 on). The list shows a part of the results.

Biological target: T1, Sko1 (UniProt Q02100)
T1 sequence: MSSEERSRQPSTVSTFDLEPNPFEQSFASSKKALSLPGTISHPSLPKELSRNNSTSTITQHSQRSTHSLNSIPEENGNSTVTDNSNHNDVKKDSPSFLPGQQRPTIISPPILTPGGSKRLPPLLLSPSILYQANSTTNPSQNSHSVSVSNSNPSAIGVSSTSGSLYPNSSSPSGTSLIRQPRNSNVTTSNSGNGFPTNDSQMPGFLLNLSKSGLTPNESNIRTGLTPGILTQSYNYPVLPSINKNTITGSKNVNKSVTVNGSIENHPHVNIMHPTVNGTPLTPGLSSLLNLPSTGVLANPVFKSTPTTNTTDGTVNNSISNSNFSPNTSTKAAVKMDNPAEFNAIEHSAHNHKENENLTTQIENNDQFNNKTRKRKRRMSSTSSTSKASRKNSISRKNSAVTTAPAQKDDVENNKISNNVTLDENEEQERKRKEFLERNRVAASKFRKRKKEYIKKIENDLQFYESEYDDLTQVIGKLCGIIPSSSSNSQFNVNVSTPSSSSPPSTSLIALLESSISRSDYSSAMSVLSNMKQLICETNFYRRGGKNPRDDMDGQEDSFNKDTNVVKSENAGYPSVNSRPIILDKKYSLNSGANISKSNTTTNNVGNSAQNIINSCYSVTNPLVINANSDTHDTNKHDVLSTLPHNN
Test: PBM E-score (8-mer binding enrichment) (E-score (-0.5 to 0.5)); higher = stronger / more preferred TF binding; most listed sequences are background and not binding sites
Settings: protein concentration: 200 nM; construct: GST-full length
Description: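 Universal 'all 10-mer' protein binding microarrays (Agilent AMADID 015681) probed with GST-tagged S. cerevisiae TFs (full-length or DBD) made by in vitro transcription/translation (PURExpress), about 100-200 nM. Bound TF was detected with fluorescent anti-GST. Each ungapped 8-mer (which stands for itself and its reverse complement) is scored by the PBM enrichment score (E-score), a modified Wilcoxon-Mann-Whitney statistic from -0.5 to +0.5, computed with the Universal PBM Analysis Suite. Scale: above 0.35 generally sequence-specific binding.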

Row | Sequence | PBM E-score
1 | CCGCACGA | -0.0576
2 | ATAGCACG | -0.0293
3 | AAGGTATT | 0.131
4 | CCCATGAC | 0.29
5 | CAATAGTC | -0.085
6 | AAAACGTT | 0.207
7 | ACCGGATA | -0.0414
8 | CCTCAAGC | -0.248
9 | GGCAGGCA | -0.261
10 | GTGGACTA | 0.0315
11 | GTGCGGGA | -0.0866
12 | ACGCGCCT | 0.104
13 | CAAATAAA | 0.101
14 | AAGCGGTG | -0.19
15 | AACGGCTG | -0.249
16 | AAATTGGC | -0.00929
17 | CCATACAC | -0.0195
18 | AAGCCACG | 0.0746
19 | AGCGCGAG | -0.178
20 | TAATCCGA | 0.192
21 | CTTAAAAG | -0.0915
22 | CGAGATAG | -0.0941
23 | ATTCGCAG | 0.133
24 | ACAAGGAG | 0.0965
25 | AAGTTAGA | -0.03

Row | Sequence | PBM E-score
26 | ACAAGATG | -0.0878
27 | ACTATCTG | -0.0654
28 | AAGTGCAT | 0.196
29 | CCCTCCAA | -0.136
30 | AGGCTCAT | -0.232
31 | ACCAGAAA | -0.0412
32 | ACAGAAAT | 0.037
33 | TCGAAGAA | 0.0891
34 | ACCTGTAA | -0.0978
35 | CCCAGTAA | -0.0661
36 | GCGTTAAC | 0.0751
37 | CTTTATGC | -0.0461
38 | ACATCGAG | -0.0809
39 | TTGTAAAA | 0.133
40 | CGGGAGGC | -0.217
41 | ATTGGATC | -0.0341
42 | TGGTACAA | 0.00028
43 | ACTAATCC | -0.0743
44 | GCCTGCCC | -0.24
45 | TATTATGA | 0.255
46 | CTGAGTTA | -0.0647
47 | AACCGCGG | -0.0169
48 | AAGCGCCT | -0.233
49 | GAGGGCCC | -0.403
50 | CACTTTGA | -0.0608

Row | Sequence | PBM E-score
51 | GCATTGGC | -0.115
52 | TAGGCATA | -0.0703
53 | CGAATTTA | 0.239
54 | ACCCCTGC | -0.297
55 | GCAATGTA | 0.0506
56 | AGCCAACA | -0.00051
57 | AGAGCGAT | -0.16
58 | ATCTCAGG | -0.0616
59 | AGGGTGGG | -0.0285
60 | ACGCGTGC | 0.201
61 | ACCAAAGC | -0.0679
62 | ATGATTTG | 0.0744
63 | CATGTTAG | 0.0472
64 | AGCCGGCA | -0.306
65 | GCACGTCA | 0.477
66 | CCTACAAC | 0.13
67 | GCCACACC | -0.0462
68 | ATCACGTA | 0.465
69 | ATTTGTAG | 0.143
70 | AAGTAATG | 0.0878
71 | CGGACGGC | -0.0445
72 | AGTTCGCC | 0.0562
73 | ATGTGGCA | -0.0362
74 | AATGCTAG | -0.141
75 | AAGCGATA | -0.00191

Row | Sequence | PBM E-score
76 | CGGAGATC | -0.174
77 | CAACTCTA | -0.0906
78 | ACCTTATG | 0.0351
79 | GTCAATAA | 0.179
80 | TATGATGA | 0.317
81 | CGCTACAA | -0.0792
82 | AAGTTTTG | -0.0133
83 | CGAAACGA | 0.141
84 | GCGGGCGA | -0.0617
85 | AGATCTAC | 0.116
86 | ATAGATGC | -0.0292
87 | CAGTCGGA | -0.216
88 | CTGAGTGC | -0.109
89 | CTTGGTTA | -0.066
90 | CTACTAAA | 0.0411
91 | GACCCGTA | -0.191
92 | CCGGGCCA | -0.297
93 | GTAAAGCA | 0.205
94 | ATAAATAC | 0.23
95 | AAATAATC | 0.163
96 | ACGCGTTC | 0.104
97 | TGGGCAAA | -0.124
98 | CGACTCCG | -0.285
99 | AAAGCGCA | -0.19
100 | CTAAAATA | 0.143

Row | Sequence | PBM E-score
101 | GAGCCATC | -0.153
102 | CCACGAAA | 0.0267
103 | CCCTCCCG | -0.172
104 | AACTCCCG | -0.134
105 | TTACTCAA | 0.108
106 | CATGCCAA | -0.0243
107 | ATGAAAGA | 0.0579
108 | ACTCGGCC | -0.151
109 | CTTCCCCC | -0.194
110 | ATGCATAC | 0.158
111 | AGCCATAG | -0.215
112 | AGTGGTGA | -0.0664
113 | ACAAAACA | 0.117
114 | CCGGACGC | -0.117
115 | ATGTAGTG | 0.0795
116 | CTCACAGA | 0.00688
117 | GTTATAAA | 0.288
118 | GTTAGTAA | 0.156
119 | AAGACTTG | -0.0457
120 | AGTTGCAG | -0.119
121 | ACTTGATA | 0.122
122 | CTGCGCCC | -0.249
123 | CCTTTACC | -0.315
124 | CGATTGCG | 0.287
125 | AAGCTCCC | -0.344

Row | Sequence | PBM E-score
126 | GGTTATGA | 0.0964
127 | GGTGATCA | 0.0126
128 | CAGGCTCA | -0.118
129 | GGCTAAGA | -0.101
130 | AGCGCCGG | -0.204
131 | AACCAGTT | 0.102
132 | ACGGAGTA | -0.0183
133 | AGACATTG | -0.167
134 | TACTGAAA | 0.219
135 | GCCCCGAC | -0.125
136 | CGTACACC | 0.146
137 | AAAGGGCT | -0.354
138 | ACGCGCGT | 0.269
139 | AGCCTCGG | -0.231
140 | AGATGTCA | 0.189
141 | ACGTACAC | 0.444
142 | TATTATAA | 0.181
143 | CCAAAACG | 0.171
144 | CCACAGGA | -0.0523
145 | AAGAGCCC | -0.168
146 | TACACCAA | 0.0162
147 | TCGCAGAA | -0.0347
148 | AGGCCACT | -0.16
149 | AATAGTCT | 0.0372
150 | ACAGTTTC | 0.0429

Row | Sequence | PBM E-score
151 | TACCAAGA | 0.0282
152 | ATGTCGGC | -0.12
153 | GCAGTTGA | -0.111
154 | CCCCAGCA | -0.157
155 | AACTGCCC | -0.282
156 | CACCCGAC | -0.0908
157 | CTGGCGTC | 0.0837
158 | ATTCCCTA | -0.019
159 | CCTTTTCA | -0.107
160 | AAGCGCCA | -0.249
161 | AGTCCAAA | -0.14
162 | ACTTCAAT | 0.064
163 | ATTGTTGC | 0.236
164 | AGCTACTC | -0.182
165 | GCTACATA | 0.0142
166 | CCACGACC | -0.0564
167 | AGCCACTA | -0.198
168 | CGGTCATC | -0.0713
169 | CACATTAC | 0.354
170 | AAAATGGG | -0.146
171 | AGCTCGGC | -0.0932
172 | CACTATAG | -0.00316
